PubChem BioAssay (NCI)
Where “and” joins values, the source holds several entries; their conditions need not be identical. Equal values may be shown once.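 Interpolation was linear, between the two tested concentrations surrounding the appropriate level; five concentrations were tested over 48 hours in 96-well plates. At the GI50, growth is halved. TGI is the concentration that stops growth completely.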

Test system: NCI-H322M lung
Assay: NCI anticancer screen, dose series, 48 h

| Structure (SMILES) | TGI | GI50 |
| --- | --- | --- |
| CCC(=O)Nc1ccc(N2C(=O)/C(=C/c3ccc(O)c(OC)c3)N=C2c2ccccc2)cc1 | 38.2 µM | – |
| CC(C)Oc1cc2c(cc1O)CC[C@@H]1[C@@H]2CC[C@]2(C)[C@@H](O)CC[C@@H]12 | 59.5 µM | – |
| CCCCCCCCCCC[N+]1(Cc2ccccc2)CC2CCN(Cc3ccccc3)CC2C1 (stereo unspecified) | 2.9 µM | – |
| COc1ccc(/C=N/N=C(\N)NO)c(OC)c1OC | > 100 µM | – |
| O=C(O)c1ccc2c(c1)Cc1cc([N+](=O)[O-])ccc1-2 | > 100 µM | – |
| CCOc1ccc(N=Cc2cccc3cccnc23)cc1 | > 100 µM | – |
| OCCCCC#Cc1ccccc1C#Cc1ccccc1 | 29.3 µM | 14.9 µM |
| O=C1C=C[C@@]23CC1C(O)C[C@H]2C=Cc1ccccc13 (stereo partly specified) | > 100 µM | – |
| CC(C)N(C(=O)C12C3C4C5(C#N)C3C1(I)C5C42I)C(C)C (stereo unspecified) | > 100 µM | – |
| Cc1ccc(Cl)c2c(=O)cc(-c3ccccc3)[nH]c12 | > 100 µM | – |
| CC(=O)Nc1nc(C)c(S(=O)(=O)NC(=O)N2c3ccccc3CCc3ccccc32)s1 | > 100 µM | – |
| COc1c(-c2ccc(F)cc2)oc2cc(O)cc(O)c2c1=O | > 100 µM | – |
| O=c1oc2ccccc2c(O)c1C(c1ccc(O)cc1)c1c(O)c2ccccc2oc1=O | > 100 µM | – |
| CCCCn1c2cc(OCc3cn(-c4ccc(Cl)cc4)nn3)ccc2c2ccnc(C)c21 | > 33.3 µM | 8.95 µM |
| c1ccc2c(c1)ccc1nc(-c3ccc4c(c3)OCO4)c3c(c12)CCC3 | > 100 µM | – |
| O=c1cccc(C#CC#C[C@H]2O[C@@H]2CO)o1 | 6.19 µM | 2.49 µM |
| O=c1cc(C(F)(F)F)c2cc3c(cc2o1)NCCC3 | > 100 µM | – |
| Cc1cccc(-c2nc3c(C(=O)NCCN(C)C)cccc3[nH]2)c1 | 6.4 µM | – |
| O=C(O)c1cc(Nc2c(O)c3c(c(O)c2Cl)C(=O)C=CC3=O)ccc1O | > 10 µM | – |
| Cc1cc2nc3c(N)nn(CCN(C)C)c3nc2cc1C | > 100 µM | – |
| Cn1c(=O)[nH]n(-c2ccc3ccccc3c2)c1=O | > 100 µM | – |
| CC[C@]1(O)CC2CN(CCc3c([nH]c4ccccc34)[C@@](C(=O)OC)(c3cc4c(cc3OC)N(C)[C@H]3[C@@](O)(C(=O)OC)[C@H](OC(C)=O)[C@]5(CC)C=CCN6CC[C@]43[C@@H]65)C2)C1 (stereo partly specified) | 48.8 µM | < 0.005 µM |
| [N-]=[N+]=NC(c1cn(C2CC(O)C(CO)O2)c(=O)[nH]c1=O)C(Br)I (stereo unspecified) | > 100 µM | – |

| Structure (SMILES) | TGI | GI50 |
| --- | --- | --- |
| CN1C(=O)C(CCO)(C(C)(C)C)c2ccccc21 (stereo unspecified) | > 100 µM | – |
| CCCCCCCCCC(=O)CC(=O)c1ccc(O)cc1O | > 100 µM | – |
| CC(CN(CP(=O)([O-])[O-])CP(=O)([O-])[O-])N(CP(=O)([O-])[O-])CP(=O)([O-])[O-].N.N.[Pt+2] (stereo unspecified) | > 100 µM | > 100 µM |
| C1CC[N-]CC1.C1CC[N-]CC1.C1CC[N-]CC1.C1CC[N-]CC1.[Cl][Rh][Cl] | 87.5 µM | 14.1 µM |
| CCOC(=O)CC(=O)Sc1ccccc1 | > 100 µM | – |
| COc1ccc2[nH]c(-c3ccccn3)cc(=O)c2c1 | > 100 µM | – |
| Cc1c(N=Nc2ccc([N+](=O)[O-])cc2)nc2scc(-c3ccccc3)n12 | > 100 µM | – |
| C/C(=C\COP(=O)(O)OP(=O)(O)O)CC/C=C(\C)CNc1ccccc1 | 43 µM | – |
| C=C1C(=O)O[C@H]2[C@H]1CC/C(COC(=O)NCc1cc3ccccc3[nH]1)=C\CC[C@@]1(C)O[C@@H]21 | 16.1 µM | 4.53 µM |
| CCCC(CC)c1cc(O)c(O)cc1C(CC)CCC (stereo unspecified) | > 10 µM | – |
| CC1=C([Se]CC(OC(=O)CC[Se]c2ccccc2)C(=O)NCCCCCC(=O)OCc2ccccc2)C(=O)c2ccccc2C1=O (stereo unspecified) | 24.8 µM | 2.87 µM |
| COC(C[C@H]1CCCC[C@]1(O)/C(=C\CO[Si](C(C)C)(C(C)C)C(C)C)Sc1ccccc1)OC | > 100 µM | – |
| Clc1ccc(Cc2nc3ccccc3nc2-c2cccc(Cl)c2)cc1 | 28.8 µM | – |
| O=[N+]([O-])c1cccc([N+](=O)[O-])c1Cl | 37.9 µM | – |
| COc1c(O)c2c(c3cc(C(=O)N4CCc5c4c(O)c(OC)c4[nH]c(C(=O)N6CC7CC78C6=CC(=O)c6[nH]cc(C)c68)cc54)[nH]c13)CCN2C(N)=O (stereo unspecified) | 47 nM and > 100 µM and 0.0194 µg/mL | – |
| COC(=O)NC(Nc1ccc(C)cc1)(C(F)(F)F)C(F)(F)F | > 100 µM | – |
| NC(=O)c1cnc(N[C@@H]2CCCC[C@@H]2N)nc1Nc1cccc(-n2nccn2)c1 | 18.5 µM | 5.48 µM |
| O=C1c2ccccc2C2(c3ccc(Cl)cc3)N[C@@H]3CCCC[C@@H]3N12 (stereo partly specified) | > 100 µM | – |
| O=C1NC(=S)N/C1=C\c1ccc(Sc2ccccc2C(=O)O)s1 | > 100 µM | – |
| C/C(=N/S(=O)(=O)c1ccc(Cl)c(Cl)c1)OCC(C)(C)C | > 100 µM | – |
| CCN(CC)c1ccc(/C=C\c2cc(C)c3cc(C)ccc3n2)cc1 | > 100 µM | 87 µM |
| CC1OC(n2ncc(=O)[nH]c2=O)C=CC1=O (stereo unspecified) | > 100 µM | – |
| O=P1(N(CCCl)CCCl)NCCCO1 (stereo unspecified) | > 250 µM | – |

| Structure (SMILES) | TGI | GI50 |
| --- | --- | --- |
| Cc1sc2nc3n(sc4nc5sc(C)c(C)c5c(=O)n43)c(=O)c2c1C | > 100 µM | – |
| Cc1ccc(C(=O)Nc2ccc(CN3CCN(C)CC3)c(C(F)(F)F)c2)cc1C#Cc1cnc(N)cc1C#N | 3.01 µM | 0.284 µM |
| CC(O)/C=C/C(CCC(C)CO)C(C)C (stereo unspecified) | > 100 µM | – |
| Cn1c(O)c(/C=N/c2ncccn2)c(=O)[nH]c1=O | > 100 µM | – |
| O=C1Sc2cc3ccccc3cc2C(=O)Sc2cc3ccccc3cc21 | > 100 µM | – |
| CCOP(=O)(OCC)C(NC(c1ccccc1)c1ccccc1)c1ccccc1 (stereo unspecified) | 24.6 µM | 11.8 µM |
| COc1ccc(OC)c(-c2cn3c(n2)sc2ccccc23)c1 | > 100 µM | – |
| Cc1ccc(C(CN(C)C)C(=O)c2ccccc2)cc1 (stereo unspecified) | 37.9 µM | 17.9 µM |
| CCOC(=O)NC(OCc1ccccc1)(C(=O)OC)C(F)(F)F (stereo unspecified) | > 100 µM | – |
| COC(C/C=C\C=C\CC/C=C/CC(C)/C=C/C(=C\C(=O)O)CC(=O)O)/C(C)=C\C=C(/C)C(=O)O (stereo unspecified) | > 100 µM | – |
| CCC1(O)CC(O)c2c(O)c3c(c(O)c2C1C(=O)OC)C(=O)c1cccc(O)c1C3=O (stereo unspecified) | 24 µM | – |
| CCCCN(CCCC)C1=Nc2ccccc2-n2c(nnc2C(=O)OCC)C1 | > 100 µM | – |
| c1cc2c3c(c1)[C@@H]1O[C@@H]1c1cccc(c1-3)[C@@H]1O[C@H]21 | > 100 µM | – |
| COP(=O)(OC)C(NC(c1ccccc1)c1ccccc1)c1ccc2c(c1)OCO2 (stereo unspecified) | > 100 µM | 36.5 µM |
| CCOC(=O)/C(C1=N[C@H](C(=O)OCC)CS1)=C(\O)c1ccccc1 | > 100 µM | – |
| COc1ccccc1-[n+]1cc(-c2ccc(-c3ccccc3)cc2)n2c1CCCCC2 | 13.9 µM | 1.83 µM |
| COc1ccc(/C=N/N=C(\N)NO)cc1OC | > 100 µM | – |
| COC(=O)C1=C(C)N(NC(N)=O)C2(N)N(NC(N)=O)C(C)=C(C(=O)OC)C12C(=O)OC (stereo unspecified) | > 100 µM | – |
| O=C1/C(=C/c2cccs2)N=C(c2ccccc2)N1c1nc2ccccc2s1 | > 100 µM | – |
| CCCCCCCCCCC/C(=N/O)c1ccc(O)c2ncccc12 | 93.4 µM | – |
| C=C1[C@@H](C)[C@H]2[C@H](Cc3ccccc3)NC(=O)[C@]23OC(=O)/C=C/[C@H](O)CCC[C@@H](C)C/C=C/[C@H]3[C@@H]1O | > 97.5 µM | – |
| Nc1cc2ncnc(Nc3cccc(Br)c3)c2cn1 | > 100 µM | – |
| O=C1c2c(O)cccc2Cc2cccc(O)c21 | 14.5 µM | – |

| Structure (SMILES) | TGI | GI50 |
| --- | --- | --- |
| Oc1ccc(O)c(Sc2nnc(CCCCCCCCc3nnc(Sc4cc(O)ccc4O)o3)o2)c1 | > 100 µM | – |
| O=C(O)C(=Cc1ccnc2ccccc12)C(=O)O | > 100 µM | – |
| COc1ccc(-n2c(SCc3cc(OC)c(OC)c(OC)c3)nc3ccc(C)cc3c2=O)c(OC)c1 | > 100 µM | 3.61 µM |
| O=C1NC(=S)NC(=O)C1=Cc1cc2c(cc1[N+](=O)[O-])OCO2 | > 100 µM | – |
| Oc1ccc(Cc2ccc(O)c3ncccc23)c2cccnc12 | > 100 µM | 0.294 µM |
| Cc1c(/C=N/NS(=O)(=O)c2ccccc2)no[n+]1[O-] | > 100 µM | – |
| CCOc1ccccc1N=NC1C(=O)N(C(=O)CC(=O)Nc2ccccc2OC)N=C1C (stereo unspecified) | > 100 µM | – |
| Oc1ccc(/C=N\Nc2ccccn2)c(O)c1 | 5.38 µM | 0.859 µM |
| CC(C)CCCC(C)[C@H]1CC[C@H]2NCCCC[C@]12C (stereo partly specified) | 12.4 µM | – |
| C=C(C)C(=O)O[C@H]1CC2(CO)O[C@@H]2CC/C(COC(C)=O)=C/C2OC(=O)C(=C)[C@@H]21 (stereo partly specified) | > 100 µM | – |
| Cc1ccccc1-c1c(N)nc(NC#N)nc1C(=O)Nc1ccccc1 | > 100 µM | – |
| O=S(=O)([O-])c1cccc2cccc(N=Cc3ccccc3[O-])c12.O=S(=O)([O-])c1cccc2cccc(N=Cc3ccccc3[O-])c12.[O]=[U]=[O] | > 100 µM | > 100 µM |
| O=C(c1ccccc1)c1ccc2nc(-c3c(Cl)c(Cl)c(Cl)c(Cl)c3C(=O)Nc3ccco3)[nH]c2c1 | > 100 µM | – |
| [Cl][Bi]([O]c1ccccn1)[O]c1ccccn1 | > 100 µM | > 100 µM |
| COc1cccc(OC/C(N=Cc2ccncc2)=N/NC(=O)c2ccncc2)c1 | > 100 µM | – |
| OCc1cn(Cc2cccc(Cl)c2)c2ccccc12 | 48.6 µM | 11.5 µM |
| CCn1c(O)c(C(=O)NC(C)c2ccc([N+](=O)[O-])cc2)c(=O)n(CC)c1=S (stereo unspecified) | 12.5 µM | – |
| Cc1ccc(C2(N3CCOCC3)OC(C)(C)c3cccc4cccc2c34)cc1 (stereo unspecified) | 34 µM | – |
| O=c1c2ccccc2c2ccccc2c(=O)n1-c1cc2c3ccccc3ccc2c2ccccc12 | > 100 µM | – |
| C=C1C(=O)O[C@H]2[C@H]1CC/C(COC(=O)/C=C/C(=O)OC/C1=C/CC[C@@]3(C)O[C@H]3[C@H]3OC(=O)C(=C)[C@@H]3CC1)=C\CC[C@@]1(C)O[C@@H]21 | > 100 µM | > 100 µM |
